Screen size: about 50,000 compounds; about 800 (1.6%) showed an effect of 50% or more. The list shows a part of the results.

This note sets out measurements from PubChem BioAssay AID1240 (Sanford-Burnham Center for Chemical Genomics, 2008).

This assay deals with Bcl-2-like protein 10 (Homo sapiens) (UniProt Q9HD36). The experiment in a line: TR3 peptide-Bcl-B binding displacers, biochemical primary FP assay, phenotype converters (AID 1240).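 Further: 0% = Bcl-B with tracer peptide and DMSO and 100% = tracer peptide lacking Bcl-B.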 Particulars: GST-Bcl-B / FITC-TR3 peptide fluorescence polarization; stronger effect = higher value; compound at 3.75 mg/L.
Chain of UniProt Q9HD36 (Q9HD36 whole entry, looked up): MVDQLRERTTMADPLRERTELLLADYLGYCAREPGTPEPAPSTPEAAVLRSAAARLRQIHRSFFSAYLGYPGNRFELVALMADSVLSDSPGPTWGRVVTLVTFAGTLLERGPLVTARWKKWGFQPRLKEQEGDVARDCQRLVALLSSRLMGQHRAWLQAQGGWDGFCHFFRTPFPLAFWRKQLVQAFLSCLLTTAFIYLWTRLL
For `O=C(COc1cccc(Cl)c1)Nc1ccc2c(c1)OCCO2`, the displacement worked out at 2.2%.
For `N/C(=N\c1nc(C(F)(F)F)cc(=O)[nH]1)Nc1ccc(I)cc1` the value was -2.2%.
On to `COc1ccc(/C(C)=N/NC(=O)CCc2c(C)n[nH]c2C)cc1OC`, for which the displacement was -6%.
`O=C(Nc1ccc(-c2cnc(-c3ccc(NC(=O)c4ccccc4Cl)cc3)nc2)cc1)c1ccccc1Cl`: the displacement was found to be 12.1%.
As to `Cc1cc(C)nc(NN2C(=O)/C(=C/c3cccc(Br)c3)SC2=S)n1`, the displacement was -27.5%.
As to `COc1cccc(NC(=O)/C(=C/c2ccc(C)o2)NC(=O)c2ccccc2)c1`, the displacement was found to be 9.6%.
For `COc1ccc(OCCNS(=O)(=O)c2ccccc2)cc1` the value was 5.7%; for `COc1cc(OC)c(OC)cc1C=NN1CCN(c2ccc(Cl)cc2)CC1`, -2%.
On to `O=C(NC(=S)Nc1c(Cl)cc(Cl)cc1Cl)c1ccco1`, for which the displacement stood at 4.7%.
As for `C=CCN1C(=O)/C(=C\c2ccc(C(=O)OC)cc2)C(C(=O)OC)=C1C`, the displacement was -14.5%.
On to `O=C(COc1ccc2ccccc2c1)NCc1cccnc1`, for which the displacement was 0.9%.
Turning to `CCCOc1ccc2c3c(c(=O)oc2c1OCCC)CCCC3`, the displacement is 2%.
For the compound `Cn1cnnc1SCC(=O)NC(c1ccccc1)c1ccccc1`, the displacement is 5.3%.
For `COc1ccc(CCNC2CCN(Cc3ccccc3)CC2)cc1OC` the value was 7.4%; for `CN1C/C(=C\c2cccnc2)C(=O)/C(=C/c2cccnc2)C1`, -5.2%.
As for `CCc1c(C)sc(NC(=O)C2C3CCC(C3)C2C(=O)O)c1C(=O)OC(C)C` (stereo not given), the figure is -14.6%; as for `COc1ccc(S(=O)(=O)Nc2ccc(C)cc2C)cc1Br`, 2.5%.
As to `O=C(NCCN1CCOCC1)c1cccc(I)c1`, the displacement worked out at 2.4%.
For `COc1ccc(/C=C2\SC(=S)N(C(C(=O)O)C(C)C)C2=O)cc1OC` (stereo not given), the displacement was -27.3%.
Turning to `COc1cccc(-n2c(O)c(C=NCC3CCCO3)c(=O)[nH]c2=O)c1` (stereo not given), the displacement is 7.3%.
As to `Cc1ccc(S(=O)(=O)/N=C(\c2ccccc2)N(C)C)cc1`, the displacement came out at 13.2%.
For `CC(C)(C)c1ccc(-c2nn(CNc3cccc(Cl)c3)c(=S)o2)cc1` the value was 14%; for `C/C(=N\N=C1\NC(=O)C(CC(=O)Nc2ccccc2)S1)c1ccc(O)cc1O` (stereo not given), 19%; for `C/C(=N\Nc1nc(C(C)(C)C)cs1)c1ccccc1`, 12.7%.
For `CC(C)(C)NC(=O)c1ccc(NC(=O)C(C)(C)C)cc1`, the displacement was -0.9%.
Take `O=C1C2C3C=CC(CC3)C2C(=O)N1/N=C/c1cccs1` (stereo not given): the displacement was determined as 0.7%.
Take `CCOc1cc(/C=C2\SC(=S)N(c3ccccc3)C2=O)ccc1OC(=O)c1cccc([N+](=O)[O-])c1`: the displacement came to 14.1%.
Take `Cc1cc(I)ccc1NC(=O)c1ccccc1Cl`: the displacement is -3.5%.
With `Cc1cccc(N2C(=O)c3ccc(N)cc3C2=O)c1C`, the displacement turned out to be 12.3%.
In the case of `CCOc1ccc(NC(=O)CCC(=O)OC)cc1`, the displacement came out at 12.6%.
Regarding `Cc1cccc(C)c1NC(=O)Cc1ccc(Br)cc1`, the displacement is 14.5%.
As for `CC1=C(C(=O)OCC2CCCO2)C(c2cccs2)C2=C(CC(C)(C)CC2=O)N1` (stereo not given), the displacement was 2.8%.
For `CC(OC1=CC(=O)CCC1)C(=O)c1ccccc1` (stereo not given) the value was -1.8%.
Regarding `COc1ccc(CC(=O)Nc2ccc(Br)cc2C(=O)O)cc1`, the displacement was found to be 4.5%.
On to `COc1ccc(/C(O)=C/C(=O)C(=O)NCc2ccccc2)cc1`, for which the displacement was 5.5%.
For `O=C1c2cccc3ccc(Cl)c(c23)C(=O)N1Oc1ccc([N+](=O)[O-])cc1[N+](=O)[O-]` the value was 30.9%.
As for `CCOC(=O)C1=C(N)OC2=C(C(=O)CCC2)C1c1ccc(Cl)cc1Cl` (stereo not given), the figure is -2.9%; as for `O=S(=O)(c1cc(Cl)ccc1Cl)n1cnc2ccccc21`, -5.9%.
With `CC(C)(C)NS(=O)(=O)c1ccc2ccccc2c1`, the displacement was -2%.
As for `COC(C)(C)c1cc(-c2ccccc2)nc(N)n1`, the displacement is -6%.
For `COc1ccccc1CNC(=O)C(=O)Nc1cc(C)ccc1C`, the displacement is 8.5%.
For the compound `COc1ccc(N=c2ssc3c2-c2cc(OC)ccc2NC3(C)C)cc1`, the displacement is -4.1%.
For `COc1cc(C(=O)NCc2ccco2)c([N+](=O)[O-])cc1OC` the value was 8.4%.
As for `CCOC(=O)C1CCN(Cc2c(O)ccc3ccccc23)CC1`, the figure is 9.4%; as for `COc1ccc(OC)c(CN2CCN(C(=O)c3ccc(-c4ccccc4)cc3)CC2)c1`, -5.1%; as for `O=C(Nc1cc([N+](=O)[O-])ccc1C(=O)NCc1ccco1)c1cccs1`, -5.8%.
Regarding `COc1ccccc1C(=O)N1CCN(C(=O)CC(C)C)CC1`, the displacement was -5.6%.
Turning to `O=S(=O)(c1ccc2ccccc2c1)N1CCC(Cc2ccccc2)CC1`, the displacement is -21.4%.
As for `Cc1c(NC(=O)CN(c2cccc([N+](=O)[O-])c2)S(=O)(=O)c2ccccc2)c(=O)n(-c2ccccc2)n1C`, the displacement was found to be 11.6%.
For `COc1cccc(C2(c3cccc(OC)c3)CC2C(=O)Nc2cccc([N+](=O)[O-])c2)c1` (stereo not given) the value was -2.6%; for `Cc1ccc(S(=O)(=O)N2CCN(c3ccccc3)CC2)cc1C`, -6.7%.
For `O=C(c1ccccc1)c1ccc2nc(-c3cccnc3)[nH]c2c1` the value was 13.2%.
On to `O=C1CC(=O)N2N=C(c3ccccc3)SC2=N1`, for which the displacement turned out to be 8.5%.
For the compound `O=C(CN1C(=O)/C(=C/c2ccc(Br)cc2)SC1=S)Nc1nccs1`, the displacement worked out at 9.9%.
On to `N/C(=N/OCC(=O)Nc1ccc(F)cc1)c1nonc1N`, for which the displacement came to 7.8%.
With `N#C/C(=C\c1ccc(-c2ccc(Cl)cc2)o1)c1ccccc1`, the displacement was 130%.
For `COc1ccccc1N(CC(=O)Nc1ccc(C)c(C)c1)S(=O)(=O)c1ccccc1` the value was 3.4%; for `CC(Oc1ccccc1)C(=O)Nc1cc(C(N)=O)c(Cl)cc1Cl` (stereo not given), -0.2%.
In the case of `O=C1c2c(Cl)c(Cl)c(Cl)c(Cl)c2C(=O)C1(Nc1ccccc1)c1ccccc1`, the displacement came out at 31.1%.
As for `COc1cc(/C=C2\N=C(c3cccc(Br)c3)OC2=O)cc(OC)c1OC`, the figure is 72.6%.
As for `O=C(NCC1CCCO1)c1ccc(-c2ccccc2)cc1` (stereo not given), the displacement worked out at 9.1%.
On to `Clc1cccc(-c2nc3ccccc3[nH]2)c1`, for which the displacement was 1.9%.
Regarding `Cc1c(C)c2ccc(OCC(=O)C(C)(C)C)cc2oc1=O`, the displacement was determined as 12.2%.
In the case of `O=C(Nc1ccc(I)cc1Cl)c1ccccc1Cl`, the displacement came to 13.4%.
As for `Cc1cc(C=C2C(=O)NC(=O)NC2=O)c(-c2ccccc2)n1-c1ccccc1`, the displacement was found to be 150%.
Regarding `Cc1cc2oc(=O)cc(C)c2cc1NC(=O)CCC(=O)O`, the displacement came to 6.5%.
As for `O=C(c1ccc(F)c2ccccc12)N1CCc2ccccc21`, the figure is 19.4%; as for `CCC1CCc2c(sc(NC(=O)c3ccc(C(C)C)cc3)c2C(N)=O)C1` (stereo not given), 34.3%; as for `CC(C)(C)c1ccc(OCC(=O)Nc2cccc(NC(=O)c3ccccc3)c2)cc1`, 3.2%.
With `COc1ccc(C2CC(c3ccc(F)cc3)=NN2c2cccc(F)c2)cc1OC` (stereo not given), the displacement was -6.2%.
In the case of `FC(F)(F)c1ccc(-c2noc(-c3ccc(Br)cc3)n2)cc1`, the displacement is -10.9%.
As for `Cc1[nH]c2ccccc2c1/C=C(/C#N)C(=O)NCc1ccccc1`, the displacement was -9.6%.
As for `CN(C)Cc1c(O)ccc2c(=O)c(-c3ccc(Cl)cc3Cl)coc12`, the figure is -17%; as for `COc1cccc(OCCOc2cccc(/C=C3/SC(=S)N(c4ccccc4)C3=O)c2)c1`, 37.7%.
For the compound `O=C(Nc1ccc(N2CCCCC2)cc1)c1cccnc1`, the displacement was -5.8%.
With `COc1ccc2c(c1)NC(C)(C)c1sn(-c3ccc(C)cc3)c(=S)c1-2`, the displacement came out at 9.2%.
Regarding `O=C(CCCN1C(=O)c2cccc3cccc(c23)C1=O)NCc1ccco1`, the displacement was -8%.
`Cc1ccc(CNC(=O)CN(c2cccc([N+](=O)[O-])c2)S(=O)(=O)c2ccccc2)cc1`: the displacement worked out at 11.6%.
For the compound `Cc1cccc(OCC(=O)Nc2ncc(Cc3ccc(Cl)cc3Cl)s2)c1`, the displacement is -5.1%.
For `CC1=C(C(=O)OC2CCCCC2)C(c2cccc(Cl)c2)C2=C(CC(C)(C)CC2=O)N1` (stereo not given) the value was -2%; for `O=C1/C(=C/c2ccc(Br)cc2)SC(=S)N1Cc1ccco1`, 104%.
In the case of `COc1cc(NC(=O)CCC(=O)O)cc(OC)c1OC`, the displacement was -3.7%.
For `O=C1NC(=S)N(c2cccc(Br)c2)C(=O)/C1=C/c1ccc(O)c(Cl)c1`, the displacement is -1%.
On to `COc1ccc(C2(CNC(=O)CCc3ccccc3)CCCC2)cc1OC`, for which the displacement was -8.1%.
As for `CCOc1ccc(NC(=S)NC(=O)c2cccs2)c([N+](=O)[O-])c1`, the figure is 6.9%; as for `COc1cccc(NC(=O)c2ccc(CN(c3ccc(C)c(C)c3)S(C)(=O)=O)cc2)c1`, -5.3%; as for `COc1ccc(NC(=O)Cc2cccc3c(S(=O)O)cccc23)cc1`, 11.4%.
As for `CCCC(=O)Nc1ccc(NC(=O)COc2ccc3ccccc3c2)cc1`, the displacement is -48%.
`OCc1cn(-c2ccccc2)nc1-c1ccc(-c2nn(-c3ccccc3)cc2CO)cc1`: the displacement is -6%.
Consider `O=S(=O)(c1ccc2c(c1)OCCO2)N1CCCC1`, for which the displacement stood at 3.8%.
As for `Cc1ccccc1N1CC(C(=O)N/N=C\c2ccc(Br)cc2)CC1=O` (stereo not given), the figure is 3%; as for `COc1ccccc1N(CC(=O)NC12CC3CC(CC(C3)C1)C2)S(=O)(=O)c1ccccc1`, -6.5%; as for `COc1ccc(N/C(C)=C/C2=[N+](c3ccccc3)C(C)(O)CS2)cc1` (stereo not given), -1.5%.
On to `COc1ccc(OC)c(/C=C(/C#N)C(=O)Nc2cccc(Br)c2)c1`, for which the displacement is 100%.
For `COc1ccccc1N1CCN(/N=C/c2ccc(Br)s2)CC1`, the displacement was found to be 16.4%.
As for `CC(C)C(=O)NNC(=O)C12CC3CC(CC(C3)C1)C2`, the figure is -1.7%; as for `C=CCNC(=O)CN(c1ccc(OC)cc1)S(C)(=O)=O`, 1.7%.
Take `CC(=O)Nc1ccc(Nc2cc(Cl)c(C(F)(F)F)cc2[N+](=O)[O-])cc1`: the displacement is 7.6%.
For `Cc1ccc(C(=O)C(C)[n+]2cccc(C(N)=O)c2)cc1` (stereo not given) the value was -7.4%; for `COc1ccc(C(=O)NCC2(c3ccccc3)CCCC2)cc1`, -6%; for `Cc1ccc(OCCNC(=O)CCc2ccccc2)cc1C`, 10.3%.
With `NC(=O)SCC(=O)Nc1ccccc1Br`, the displacement is -0.6%.
For `CC1CCN(c2cc(N3CCN(C(=O)c4ccc(F)cc4)CC3)c([N+](=O)[O-])cc2F)CC1` the value was 2.4%; for `O=C(Oc1ccc(Cl)cc1)c1cccc(S(=O)(=O)N2CCOCC2)c1`, -8.4%.
On to `Cc1cc(C)nc(SCC(=O)NCc2ccco2)n1`, for which the displacement is -9.5%.
For `COC(=O)c1cn(C(=O)c2ccco2)c2ccccc12`, the displacement is -14.1%.
For `O=C(NN1C(=O)/C(=C/c2ccc(Cl)cc2Cl)SC1=S)c1ccccc1O` the value was 20.4%.
As for `CCOc1ccc(N(CC(=O)Nc2ccc(C(C)C)cc2)S(C)(=O)=O)cc1`, the figure is 6.6%; as for `CCc1c(C)nc2[nH]nc(-c3ccc(C)cc3)n2c1=O`, -5.5%; as for `COc1ccc(NC(=O)c2cc(Br)ccc2Cl)cc1OC`, -12.3%.
